Assay results published in the supplement of paper PMC7826260.
The other results are listed elsewhere or left out. Viral Rep nickase domains cut single-stranded DNA in vitro (1 h at 37 °C, 3 µM enzyme); the outer parts of the 90-letter strands are left off. Numbers give uncut DNA relative to the enzyme-free pool, as log2; more negative means more cut, near 0 not cut, and no call is made. Because reads are shares of a total, they shift together, so uncut sequences can rise above 0 when many others are cut.

What was measured:
Assay in all cases: uncleaved DNA left, log2 of reads against the no-enzyme library (log2 ratio); higher = less cleavage (more negative = more Rep cleavage of the k-mer); sequences stand for … in CTCGTCCG…ACCGGAGA
[1] = system: T1, Rep nickase domain of Muscovy duck circovirus
T1 sequence (residues 1-111 of Rep, tag left off): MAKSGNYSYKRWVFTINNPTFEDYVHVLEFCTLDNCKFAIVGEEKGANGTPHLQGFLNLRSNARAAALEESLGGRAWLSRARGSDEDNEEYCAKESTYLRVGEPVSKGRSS
Experimental: (§1)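 A pool of 90-nt single-stranded DNAs with seven random bases just before the constant AC of the nick site (name = the seven bases) was cut by 3 µM recombinant His6-SUMO-tagged Rep nickase domain (300 nM DNA, 50 mM HEPES pH 8.0, 50 mM NaCl, 1 mM MnCl2, 1 h, 37 °C, three replicates). Uncut DNA was amplified and sequenced.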

[2] = system: T2, Rep nickase domain of banana bunchy top virus
T2 sequence (residues 1-94 of Rep, tag left off): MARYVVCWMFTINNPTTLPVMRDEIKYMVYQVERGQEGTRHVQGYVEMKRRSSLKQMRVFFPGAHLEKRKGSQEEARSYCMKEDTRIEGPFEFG
Experimental: as §1

[3] = system: T3, Rep nickase domain of cabbage leaf curl virus
T3 sequence (residues 1-116 of Rep, tag left off): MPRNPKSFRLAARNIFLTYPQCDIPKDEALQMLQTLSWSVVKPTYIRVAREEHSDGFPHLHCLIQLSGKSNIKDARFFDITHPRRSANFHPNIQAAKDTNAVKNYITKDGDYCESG
Experimental: as §1

[4] = system: T4, Rep nickase domain of chickpea chlorotic dwarf virus
T4 sequence (residues 1-124 of Rep, tag left off): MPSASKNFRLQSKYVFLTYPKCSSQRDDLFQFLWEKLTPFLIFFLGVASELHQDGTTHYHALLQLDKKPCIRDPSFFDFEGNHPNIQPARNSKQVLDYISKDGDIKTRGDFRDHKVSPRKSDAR
Experimental: as §1

[5] = system: T5, Rep nickase domain of faba bean necrotic yellows virus
T5 sequence (residues 1-98 of Rep, tag left off): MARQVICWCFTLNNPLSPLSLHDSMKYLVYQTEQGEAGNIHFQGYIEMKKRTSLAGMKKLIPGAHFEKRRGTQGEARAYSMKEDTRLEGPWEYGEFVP
Experimental: as §1

[6] = system: T6, Rep nickase domain of maize striate mosaic virus
T6 sequence (residues 1-117 of Rep, tag left off): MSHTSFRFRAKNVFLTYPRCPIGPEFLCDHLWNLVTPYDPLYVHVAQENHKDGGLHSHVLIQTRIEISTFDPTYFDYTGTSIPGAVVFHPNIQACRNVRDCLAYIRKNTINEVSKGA
Experimental: as §1

[7] = system: T7, Rep nickase domain of porcine circovirus 2
T7 sequence (residues 2-116 of Rep, tag left off): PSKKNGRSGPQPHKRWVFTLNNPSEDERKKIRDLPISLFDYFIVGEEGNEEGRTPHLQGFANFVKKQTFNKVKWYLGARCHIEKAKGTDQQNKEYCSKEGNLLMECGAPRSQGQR
Experimental: as §1

[8] = system: T8, Rep nickase domain of tomato golden mosaic virus
T8 sequence (residues 1-124 of Rep, tag left off): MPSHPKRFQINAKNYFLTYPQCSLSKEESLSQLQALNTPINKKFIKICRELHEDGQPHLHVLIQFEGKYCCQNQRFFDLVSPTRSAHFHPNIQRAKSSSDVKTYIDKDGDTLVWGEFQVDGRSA
Experimental: as §1

[9] = system: T9, Rep nickase domain of tomato yellow leaf curl virus
T9 sequence (residues 1-136 of Rep, tag left off): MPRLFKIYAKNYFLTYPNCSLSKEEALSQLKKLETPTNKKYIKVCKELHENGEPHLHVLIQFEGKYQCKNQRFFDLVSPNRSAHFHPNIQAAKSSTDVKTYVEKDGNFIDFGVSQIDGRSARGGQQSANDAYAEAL
Experimental: as §1

[10] = system: T10, Rep nickase domain of wheat dwarf virus
T10 sequence (residues 1-137 of Rep, tag left off): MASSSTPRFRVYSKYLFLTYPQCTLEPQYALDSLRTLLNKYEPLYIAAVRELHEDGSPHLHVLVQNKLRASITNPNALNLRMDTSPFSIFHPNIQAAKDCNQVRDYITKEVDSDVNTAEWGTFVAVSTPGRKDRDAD
Experimental: as §1

| Sequence | uncleaved DNA left (log2) [1] | uncleaved DNA left (log2) [2] | uncleaved DNA left (log2) [3] | uncleaved DNA left (log2) [4] | uncleaved DNA left (log2) [5] | uncleaved DNA left (log2) [6] | uncleaved DNA left (log2) [7] | uncleaved DNA left (log2) [8] | uncleaved DNA left (log2) [9] | uncleaved DNA left (log2) [10] |
| --- | --- | --- | --- | --- | --- | --- | --- | --- | --- | --- |
| ACTTCTC | -0.00498 | -0.0247 | -0.171 | -0.27 | 0.0511 | -0.647 | 0.13 | 0.00334 | -0.0493 | 0.0881 |
| GGTCAGT | 0.116 | 0.22 | 0.822 | 1.84 | 0.0427 | 2.15 | 0.207 | 0.122 | 0.117 | 0.138 |
| AGTGGTG | 0.00454 | -0.0402 | -0.141 | 0.163 | -0.0132 | 0.646 | 0.0588 | 0.0436 | -0.0692 | -0.073 |
| TTTGCTC | 0.023 | 0.118 | -0.153 | -1.04 | 0.0439 | -1.19 | 0.0694 | -0.0961 | 0.0894 | -0.111 |
| TACATCC | -0.0483 | 0.0235 | -0.0142 | -0.796 | -0.0456 | -0.223 | -0.0254 | -0.0627 | 0.0679 | -0.0082 |
| CGAAGTA | -0.00727 | 0.1 | 0.0658 | -0.45 | 0.0466 | -0.107 | 0.0548 | 0.0644 | -0.0122 | -0.0174 |
| GCTGATT | -0.123 | -0.0132 | 0.114 | -0.348 | -0.0163 | 0.614 | -0.141 | 0.0379 | -0.154 | -0.124 |
| TACACAA | 0.0653 | 0.0331 | -0.109 | -0.999 | -0.0534 | -0.679 | 0.0384 | -0.00713 | 0.00992 | 0.0607 |
| TTACTGA | 0.0761 | -0.125 | 0.00972 | 0.0354 | -0.0611 | 1.14 | 0.0464 | -0.0856 | -0.163 | -0.141 |
| CTGACGA | -0.216 | -0.184 | -0.27 | -0.191 | -0.112 | -0.732 | -0.111 | -0.164 | -0.276 | -0.153 |
| CGAATAA | -0.0173 | -0.0207 | -0.229 | -0.346 | 0.1 | -0.454 | 0.0226 | -0.0707 | -0.0242 | 0.0606 |
| TTAACAT | 0.0651 | 0.13 | 0.0109 | -0.749 | 0.0392 | 0.739 | 0.0739 | 0.0659 | 0.188 | 0.207 |
| TCGCACA | -0.0504 | 0.078 | -0.00505 | -0.798 | -0.166 | -0.402 | -0.128 | 0.0801 | -0.00687 | 0.0387 |
| GTGCTTA | -0.0714 | 0.0274 | 0.311 | 0.721 | -0.138 | 1.6 | -0.00718 | 0.043 | 0.112 | 0.028 |
| GTAATCG | 0.0876 | 0.11 | -0.597 | -0.521 | 0.172 | -0.845 | 0.235 | 0.157 | 0.099 | -0.00327 |
| ATTCCAT | -0.0959 | -0.0263 | 0.0816 | -0.61 | 0.0738 | -0.472 | -0.834 | 0.0231 | 0.0018 | 0.148 |

| Sequence | uncleaved DNA left (log2) [1] | uncleaved DNA left (log2) [2] | uncleaved DNA left (log2) [3] | uncleaved DNA left (log2) [4] | uncleaved DNA left (log2) [5] | uncleaved DNA left (log2) [6] | uncleaved DNA left (log2) [7] | uncleaved DNA left (log2) [8] | uncleaved DNA left (log2) [9] | uncleaved DNA left (log2) [10] |
| --- | --- | --- | --- | --- | --- | --- | --- | --- | --- | --- |
| TTATTTG | 0.0345 | -0.00943 | -0.506 | -0.7 | 0.0178 | -1.15 | 0.0966 | -0.0667 | 0.00456 | -0.057 |
| TGAGAGT | 0.205 | 0.166 | 0.258 | 0.475 | 0.0845 | 0.575 | 0.0801 | 0.18 | 0.0708 | 0.103 |
| CTGAAGT | 8.7e-05 | -0.0719 | -0.139 | -0.537 | 0.108 | -0.816 | -0.0685 | 0.0196 | 0.00873 | -0.0262 |
| TTACGTC | -0.0525 | -0.14 | -0.0214 | -1.29 | -0.0278 | -0.763 | -0.201 | -0.0711 | 0.0249 | -0.0579 |
| TCGTCGG | 0.198 | 0.0758 | 0.569 | 1.44 | 0.19 | 2 | 0.211 | 0.0471 | -0.0281 | -0.063 |
| GGCGGTC | -0.00224 | -0.0696 | 0.295 | 0.786 | 0.0018 | 0.97 | -0.0155 | -0.00694 | -0.172 | 0.0205 |
| CCTTAAC | 0.0673 | -0.0657 | -0.37 | -1.89 | 0.108 | -0.909 | -0.0069 | -0.067 | -0.131 | 0.0797 |
| CGATATC | 0.0365 | -0.0441 | 0.181 | 0.234 | -0.087 | -0.178 | 0.0169 | -0.0857 | -0.0197 | 0.0466 |
| ACGGCAG | -0.0875 | -0.00931 | -0.634 | -0.396 | 0.00472 | -0.871 | 0.166 | 0.00553 | 0.138 | -0.154 |
| ACAGTTC | 0.0449 | -0.0209 | -0.0649 | -0.638 | 0.0236 | -0.888 | 0.0397 | 0.0513 | -0.151 | -0.161 |
| CTCCACA | -0.148 | 0.0756 | -0.128 | -1.51 | -0.0703 | -0.605 | -0.105 | -0.223 | -0.0951 | 0.149 |
| GGGCTCA | 0.0369 | 0.0314 | 0.833 | 1.9 | -0.0901 | 2.21 | 0.164 | 0.0212 | 0.126 | 0.151 |
| GTCATGT | 0.00916 | 0.101 | 0.365 | 0.829 | 0.000332 | 1.65 | 0.179 | 0.182 | 0.086 | 0.0665 |
| TTGTGGA | 0.0279 | -0.0741 | -0.126 | -0.32 | -0.012 | -0.784 | 0.0418 | -0.0758 | -0.0383 | -0.00317 |
| ACGTCGA | -0.0331 | -0.183 | -0.565 | -0.646 | 0.0616 | -1.03 | 0.0617 | 0.0089 | -0.144 | -0.0805 |
